# Test results published in paper PMC4336329 (PLoS ONE, 2015).
# Among all 310,000 compounds or so, about 14,000 (4.5%) showed an effect of 50% or more. The effect is printed as a negative number. The list shows a part of the results.
# Target: human ether-à-go-go-related gene (hERG) potassium channel (human, UniProt Q12809)
# Test: primary screen, population patch clamp on CHO cells stably expressing hERG
# 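Also: peak tail current of the secondary pulse compared with the same well before compound.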
# human ether-à-go-go-related gene (hERG) potassium channel, sequence (Q12809 whole entry, looked up): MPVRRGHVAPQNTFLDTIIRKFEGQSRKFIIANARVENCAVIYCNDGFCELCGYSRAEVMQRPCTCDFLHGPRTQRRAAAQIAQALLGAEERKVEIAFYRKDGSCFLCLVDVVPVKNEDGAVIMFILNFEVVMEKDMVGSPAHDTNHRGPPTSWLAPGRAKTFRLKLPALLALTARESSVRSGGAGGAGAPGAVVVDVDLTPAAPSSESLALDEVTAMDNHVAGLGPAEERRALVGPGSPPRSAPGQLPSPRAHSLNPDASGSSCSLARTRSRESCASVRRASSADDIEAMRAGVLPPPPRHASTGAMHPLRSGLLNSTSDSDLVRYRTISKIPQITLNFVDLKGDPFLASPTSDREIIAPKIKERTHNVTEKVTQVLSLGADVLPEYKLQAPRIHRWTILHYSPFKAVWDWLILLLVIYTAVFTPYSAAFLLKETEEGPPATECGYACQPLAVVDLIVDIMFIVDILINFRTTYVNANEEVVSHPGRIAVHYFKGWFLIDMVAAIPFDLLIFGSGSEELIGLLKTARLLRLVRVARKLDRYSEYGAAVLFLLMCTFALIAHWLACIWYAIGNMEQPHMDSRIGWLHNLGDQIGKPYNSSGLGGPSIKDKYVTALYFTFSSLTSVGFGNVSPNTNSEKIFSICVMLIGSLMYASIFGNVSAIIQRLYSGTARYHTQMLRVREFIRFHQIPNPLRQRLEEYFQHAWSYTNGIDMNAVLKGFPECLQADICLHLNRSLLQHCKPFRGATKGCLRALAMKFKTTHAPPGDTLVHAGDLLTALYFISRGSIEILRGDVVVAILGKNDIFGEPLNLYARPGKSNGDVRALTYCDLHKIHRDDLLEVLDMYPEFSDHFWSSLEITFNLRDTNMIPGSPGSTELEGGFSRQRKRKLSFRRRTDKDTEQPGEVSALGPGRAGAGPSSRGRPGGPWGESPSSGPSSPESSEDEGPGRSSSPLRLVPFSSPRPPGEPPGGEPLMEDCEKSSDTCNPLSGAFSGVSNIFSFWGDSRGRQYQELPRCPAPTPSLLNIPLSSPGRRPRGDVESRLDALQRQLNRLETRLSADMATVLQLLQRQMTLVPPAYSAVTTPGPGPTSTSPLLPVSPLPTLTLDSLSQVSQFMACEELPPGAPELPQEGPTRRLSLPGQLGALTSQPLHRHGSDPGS
row,SMILES,"hERG current change (%, negative = inhibition) at 10uM [%]"
1,CC1CC2OC(=O)C3(C)CCCC(C)(C23)C1(O)CCc1ccoc1 (stereo not drawn),-35.4
2,NS(=O)(=O)c1ccc(NC2=CC(c3ccc([N+](=O)[O-])cc3)N(c3ccc(S(N)(=O)=O)cc3)C2=O)cc1 (stereo not drawn),-6.47
3,COc1ccc(S(=O)(=O)Nc2cc(C)on2)cc1,12.6
4,CSc1ccc(CNC(=O)c2c(C)noc2C)s1,3.82
5,Cc1cccc2cncc(OCc3nnc(SC(F)F)n3C)c12,4.25
6,Cc1nn(C)c(C)c1N1C(=O)c2cccc3c(Br)ccc(c23)C1=O,-1.3
7,CCN(CC(=O)NCc1cccs1)C(=O)c1ccc(-c2cccc(C(F)(F)F)c2)o1,-82.3
8,O=C(O)CCCCNS(=O)(=O)c1ccc(Cl)c(C(F)(F)F)c1,19.9
9,Cc1ccc(OCC(=O)NNC(=O)c2ccc3c(=O)n4c(nc3c2)CCC4)cc1,-17.1
10,Brc1ccc(-c2nnc(-c3cccnc3)o2)cc1,-9.81
11,CN(C)[C@@H]1C(=O)C(C(N)=O)=C(O)[C@@]2(O)C(=O)C3=C(O)c4c(O)cccc4[C@@](C)(O)[C@H]3[C@H](O)[C@@H]12.[Ca],-2.49
12,CCCNS(=O)(=O)c1ccc2c(c1)CCCN2C(C)=O,-4.81
13,COc1ccc(-c2nc(C#N)c(N3CCC(C(N)=O)CC3)o2)cc1OC,-10.3
14,CCOC(=O)N1CCc2c(sc3c2C(=O)NC(c2ccccc2)N3)C1 (stereo not drawn),1.68
15,Cc1ccnc2nc(C(=O)N3CCN(S(=O)(=O)c4ccccc4)CC3)nn12,13.6
16,CSc1nc(O)c(C(c2cccc([N+](=O)[O-])c2)c2c(O)nc(SC)[nH]c2=O)c(=O)[nH]1,29.2
17,COc1ccc(N=Nc2c(C)n[nH]c2C)cc1,18.1
18,C=CCSc1nc2c(sc3nc(C)cc(C)c32)c(=O)[nH]1,16.5
19,CN1CC2=Cc3ccccc3OC23Oc2ccccc2C=C3C1,-35.4
20,O=C1CC(C(=O)Nc2ccccc2)N=C(N2CCCCC2)N1 (stereo not drawn),-2.01
21,Cc1cccc(OCc2occc2C(=O)Nc2cccc(-n3cnnn3)c2)c1,9.72
22,CC1CCN(C(=O)COC(=O)c2ccc3c(c2)OCO3)CC1,17.9

row,SMILES,"hERG current change (%, negative = inhibition) at 10uM [%]"
1,O=C(c1cc(S(=O)(=O)N2CCOCC2)ccc1F)N(CCc1ccccc1)Cc1ccccc1,-4.37
2,CCC(C)(C)C(=O)Nc1cc([N+](=O)[O-])ccc1Cl,-3.82
3,Cc1ccc(CN(C(=O)CNC(=O)c2cccs2)C(C(=O)NCC2CCCO2)c2ccccc2)cc1 (stereo not drawn),11.2
4,CCOc1ccccc1CNC(=O)Cn1ccc2cc(S(=O)(=O)N3CCCCCC3)ccc21,10.4
5,CN(C(=O)Cn1nnc(-c2ccccc2)n1)C1CCS(=O)(=O)C1 (stereo not drawn),4.5
6,CCOC(=O)c1cc2c(ccn2C)n1CC(=O)N1CCN(c2cccc(C(F)(F)F)c2)CC1,-1.37
7,O=C(O)CCC(NC(=O)OCc1ccccc1)C(=O)O (stereo not drawn),1.35
8,COc1ccc(NS(=O)(=O)c2cccc(-c3n[nH]c(=S)n3Cc3ccccc3)c2)cc1,-14.2
9,C/C(=N\OC(=O)c1ccc(OC(C)C)cc1)c1ccc(C)c(C)c1,-5.4
10,CC(=O)NCCc1nc2cc(NC(=O)c3ccccc3)ccc2n1C,-25.6
11,O=C(N/N=C/c1cc(Br)cc([N+](=O)[O-])c1O)c1ccc(NC(=O)c2ccc(F)cc2)cc1,16.2
12,COc1cccc(N2CCN(c3ncccn3)CC2)c1,15.3
13,O=S(=O)(Cc1ccccc1)N1CCc2ccccc21,-4.64
14,Cc1ccc(NC(=O)OCC(F)(F)C(F)F)cc1NC(=O)OCC(F)(F)C(F)F,-22.9
15,CCCCOc1ccc(NC(=O)Nc2nnc(C)s2)cc1,18
16,O=C1C2C3C=CC(C3)C2C(=O)N1c1cccc2ccccc12 (stereo not drawn),18.7
17,Cc1[nH]c2ccccc2c1C(=O)COC(=O)Cn1cnc2ccccc21,-25
18,O=C(CN1CCN(Cc2ccc(F)cc2)C1=O)NCc1cccs1,-1.62
19,Cc1ccc2c(c1)N(CC(=O)NCCC1=CCCCC1)C(=O)c1cccnc1O2,-27.8
20,Cc1ccc(NC(=O)CCC(C(=O)O)N2C(=O)c3ccccc3C2=O)cc1 (stereo not drawn),-2.68
21,Nc1ncnc2nc(SCC(=O)Nc3ccccc3F)[nH]c12,14.8
22,CCc1ccc(N/C(=N/c2nc(C)cc(C)n2)NC(C)=O)cc1,-67

row,SMILES,"hERG current change (%, negative = inhibition) at 10uM [%]"
1,Cc1cc(=O)[nH]c(SCc2nnnn2-c2ccc(Cl)cc2)n1,18.2
2,CC(=O)Nc1ccc(Cl)cc1C1COC(=O)C1=N (stereo not drawn),-1.82
3,Cc1cccc(Nc2nc(N)nc(CN3CCN(C)CC3)n2)c1,-39.2
4,CC1CN(c2cc(=O)n(Cc3ccc(F)cc3)c(=O)[nH]2)CC(C)O1 (stereo not drawn),-9.19
5,CCOC(=O)c1cccc(NC(=O)CN(C)S(=O)(=O)c2cnc[nH]2)c1,9
6,COc1ccc(-c2noc(CN(C)S(=O)(=O)c3ccc(C)cc3)n2)cc1,-14.2
7,C[C@H](NC(=O)c1ccccc1Cl)C(=O)OCC(=O)N1CCN(c2ccccc2)CC1,-9.59
8,Cc1nnc(NC(=O)CSc2ccccc2N)s1,7.93
9,CC(Nc1nc(-c2ccccc2F)nc2ccccc12)c1ccccc1 (stereo not drawn),-3.87
10,C=CCNC(=O)CSc1nc2sc3c(c2c(=O)n1CCCOC)CCC3,-28.6
11,Cc1ccc(C(=O)COC(=O)CCN2C(=O)C3C4CC(C(Br)C4Br)C3C2=O)cc1 (stereo not drawn),4.6
12,CCc1ccc(C(C)NC(=O)c2ncn[nH]2)cc1 (stereo not drawn),-5.51
13,CCOc1ccc(Cn2c(O)cc(=O)[nH]c2=O)cc1,18.4
14,CC1CCCCC1NC(=O)CN(C)S(=O)(=O)c1cccc2nsnc12 (stereo not drawn),14.3
15,CCOC(=O)CNC(=O)C12CC3CC(C1)CC(c1ccc(C)cc1)(C3)C2,-6.27
16,C=CCN1C(=O)C(C)(C)N(C(=O)c2cccc([N+](=O)[O-])c2)c2ccccc21,-16.4
17,CC(C)c1nc(NCCN2CCOCC2)c(C#N)c2c1COC(C)(C)C2,5.91
18,CCOC(=O)c1ccc(NC(=O)N2CC3CC(C2)c2cccc(=O)n2C3)cc1 (stereo not drawn),11.5
19,COc1cccc(C(=O)Nc2ccc3c(cc2=O)[C@@H](NC(C)=O)CCc2cc(OC)c(OC)c(OC)c2-3)c1,8.25
20,O=C(c1ccccc1)c1cccc(NC(=O)C2CC2)c1,0.476
21,O=c1[nH]cnc2c1ncn2[C@@H]1C[C@@H](O)[C@H](CO)O1,18.3
22,Cn1nc(C(=O)NC2CCC(O)CC2)c2ccccc2c1=O (stereo not drawn),11.1

row,SMILES,"hERG current change (%, negative = inhibition) at 10uM [%]"
1,CCOC(=O)/C(C#N)=C1/C=CN(C)C=N1,13.8
2,COC(=O)CCC(=O)OC1(C)C(=O)C=C2C=C(C3CC3)N(Cc3ccc(OC)cc3)C=C2C1=O (stereo not drawn),-0.151
3,CCOc1ccc(S(=O)(=O)NCCC(=O)N2CCN(c3ccccc3O)CC2)cc1,-21.6
4,CSc1ccc(CCNC(=O)CS(=O)(=O)Cc2nc(-c3ccccc3F)oc2C)cc1,9.68
5,COc1ccc(-n2nc(C(=O)NCC(=O)N3CCN(c4ccccc4OC)CC3)c3ccccc3c2=O)c(OC)c1,-18.4
6,O=C(COc1ccccc1)Nc1nnc(-c2ccco2)o1,22.2
7,COc1ccc(C(C(=O)NCC2CCCO2)N(Cc2ccccc2)C(=O)CNC(=O)c2ccco2)cc1OC (stereo not drawn),13.4
8,COc1c(N)c2ccccc2[nH]c1=O,-1.19
9,CC(C)(C)c1cccc(C2(O)C(=O)c3ccccc3C2=O)c1O,13
10,CCOC(=O)N1CCN(C(=O)c2ccc3c(=O)n(CCc4ccccc4)c(=O)[nH]c3c2)CC1,9.62
11,Cc1ccc(CNc2c(C=O)c(=O)[nH]c3ccccc23)cc1,14.9
12,COc1ccc(CNC(=O)CN(C(=O)c2snc(C(N)=O)c2N)c2ccc(OC)c(OC)c2)cc1,-3.19
13,CCC(c1nnnn1CC1CCCO1)N(CCCO)Cc1cc2cccc(C)c2[nH]c1=O (stereo not drawn),-4.22
14,CCOc1ccccc1CN1CCNC(=O)C1CC(=O)N(C)Cc1cnccn1 (stereo not drawn),19.2
15,COc1ccc(NCC(=O)N/N=C/C=C\c2ccccc2)cc1,-5.53
16,COc1ccc(C(=O)C2CCCN(C(=O)c3ccnn3C)C2)cc1OC (stereo not drawn),12.2
17,O=C(/C=C/c1ccc(Cl)cc1)N1CCOCC1,9.65
18,Cc1cc(C(=O)N/N=C/c2c3ccccc3cc3ccccc23)n[nH]1,9.44
19,Cc1ccc2nc(Br)c3c(c2c1)OC(CBr)C3 (stereo not drawn),-33.6
20,Cc1cc(C)c(S(=O)(=O)NCC2CCC(C(=O)NCCCN3CCC(C)CC3)CC2)c(C)c1 (stereo not drawn),-77.2
21,Nc1nnc(SCC(=O)OCC(=O)Nc2ccc(Br)cc2)s1,5.55
